Source: article PMC4336329 (PLoS ONE, 2015)
Hit rate of the full screen: of about 310,000 compounds, about 2,200 (0.71%) showed an effect of 50% or more. Effects have a minus sign here. Some of the results follow.

The molecules below were run against human ether-à-go-go-related gene (hERG) potassium channel (human, UniProt Q12809) (assay: primary screen, population patch clamp on CHO cells stably expressing hERG).
Sequence of human ether-à-go-go-related gene (hERG) potassium channel (Q12809 whole entry, looked up): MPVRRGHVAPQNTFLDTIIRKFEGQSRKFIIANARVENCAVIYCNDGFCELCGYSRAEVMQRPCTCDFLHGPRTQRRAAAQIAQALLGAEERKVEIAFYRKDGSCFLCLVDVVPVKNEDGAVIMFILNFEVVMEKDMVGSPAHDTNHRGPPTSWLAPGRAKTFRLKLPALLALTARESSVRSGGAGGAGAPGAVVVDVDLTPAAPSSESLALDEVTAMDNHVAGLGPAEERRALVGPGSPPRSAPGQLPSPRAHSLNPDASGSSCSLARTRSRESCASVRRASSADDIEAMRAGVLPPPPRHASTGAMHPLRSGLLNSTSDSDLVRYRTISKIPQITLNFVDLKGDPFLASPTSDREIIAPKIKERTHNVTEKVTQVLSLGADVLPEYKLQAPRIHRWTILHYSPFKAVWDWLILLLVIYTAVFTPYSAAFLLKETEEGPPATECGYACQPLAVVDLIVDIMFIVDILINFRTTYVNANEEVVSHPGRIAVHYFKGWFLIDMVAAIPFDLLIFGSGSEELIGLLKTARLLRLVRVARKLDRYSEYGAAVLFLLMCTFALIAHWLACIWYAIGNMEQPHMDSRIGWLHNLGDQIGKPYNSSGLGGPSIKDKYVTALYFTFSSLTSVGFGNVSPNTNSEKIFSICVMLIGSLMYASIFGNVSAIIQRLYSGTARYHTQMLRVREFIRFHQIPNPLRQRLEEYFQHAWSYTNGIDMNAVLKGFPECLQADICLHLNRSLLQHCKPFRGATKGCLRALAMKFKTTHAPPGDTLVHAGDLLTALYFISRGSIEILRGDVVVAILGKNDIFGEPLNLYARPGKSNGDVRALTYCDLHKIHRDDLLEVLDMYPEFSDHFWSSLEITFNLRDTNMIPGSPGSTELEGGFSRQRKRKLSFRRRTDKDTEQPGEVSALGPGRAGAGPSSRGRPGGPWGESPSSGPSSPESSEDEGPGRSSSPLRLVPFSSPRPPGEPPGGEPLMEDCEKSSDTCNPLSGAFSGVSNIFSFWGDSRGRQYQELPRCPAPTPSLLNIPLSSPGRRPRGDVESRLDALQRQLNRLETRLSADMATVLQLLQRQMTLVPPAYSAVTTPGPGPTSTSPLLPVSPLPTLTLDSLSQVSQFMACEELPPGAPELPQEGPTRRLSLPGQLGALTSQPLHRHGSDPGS

Row | Structure (SMILES) | hERG current change (%, negative = inhibition) at 1uM
1 | Cc1ccc(-n2nnc3c(=O)n(CC(=O)NCc4ccccc4)cnc32)cc1 | -0.575%
2 | CCc1cc(=O)oc2cc(C)cc(OCC(=O)N[C@@H](CSCc3ccccc3)C(=O)O)c12 | 11.3%
3 | COc1ccc(/C=N/NC(=O)c2cccc([N+](=O)[O-])c2)cc1O | 9.41%
4 | CC1CCCCN1CCCNC(=O)c1ccc(N2CCCC2=O)cc1 (stereo not drawn) | 15.8%
5 | COC(=O)c1c(C(=O)OC)c(C)n(Cc2cccnc2)c1C | 6.42%
6 | O=c1c2cc(Br)ccc2nc(-c2cccc(C(F)(F)F)c2)n1O | 14.6%
7 | COc1cccc(N2C(=O)C3NN=C(C(=O)CN4C(=O)c5ccccc5C4=O)C3C2=O)c1 (stereo not drawn) | 13.1%
8 | CCOc1ccc(C(CC(=O)O)NC(=O)c2sc3ccccc3c2Cl)cc1 (stereo not drawn) | 9.27%
9 | COc1cc(OC)c(N(C)S(=O)(=O)c2cccc(C(=O)NC(C)C3CC4CCC3C4)c2)cc1Cl (stereo not drawn) | 11.2%
10 | Nc1[nH]nc2ncc3cc4ccccc4nc3c12 | 16.4%
11 | Clc1ccc(Oc2nc3ccccc3n3cccc23)cc1 | 15.1%
12 | O=C(CNCCC1=CCCCC1)Nc1ccccc1N1CCCCCC1.O=C(O)C(=O)O | 6.8%
13 | COC(=O)c1nn(-c2cccc(C(F)(F)F)c2)ccc1=O | 8.73%
14 | Cc1ccccc1CC(=O)N1CCN(C(=O)c2ccco2)CC1 | 17.9%
15 | O=C(CN(Cc1ccco1)C(=O)CNS(=O)(=O)c1ccc(F)cc1)NCc1ccc(F)cc1 | -16.4%
16 | COc1ccc(N(CC(=O)NC2CCCC2)S(=O)(=O)c2c(C)[nH]c(=O)[nH]c2=O)cc1 | 16.9%
17 | O=C(NC(=S)Nc1ccc(Br)cn1)c1cncc(Br)c1 | 8.17%
18 | O=C(CN(Cc1ccccc1)S(=O)(=O)c1ccc(F)cc1)NCCC1=CCCCC1 | 10.9%
19 | CC(=O)Nc1ccc(C(=O)Nc2nc(-c3cc(C)n(Cc4ccccc4)c3C)cs2)cc1 | 11.3%
20 | COc1ccccc1C(CNC(=O)CN(C)S(=O)(=O)c1ccc(C)cc1)N1CCCC1 (stereo not drawn) | -8.51%
21 | Cc1onc(-c2c(F)cccc2Cl)c1C(=O)N(C)C1CCCCC1 | 2.58%
22 | O=C(O)c1cc2c(cc1NC(=O)c1ccccc1OC(F)F)OCCCO2 | 11.9%
23 | Cc1nc2ccccc2n1CCCOc1ccccc1 | 4.19%
24 | COc1cc(CNCCCN2CCOCC2)ccc1OCC(=O)NC(C)(C)C.Cl | 15.7%
25 | N=c1c2c(-c3ccccc3)c(-c3ccccc3)n(Cc3ccccc3)c2ncn1CCO | 0.416%
26 | Cc1c(C(=O)N2CCN(c3ccc([N+](=O)[O-])cc3)CC2)sc2ncn(CC(=O)N3CCOCC3)c(=O)c12 | 0.638%
27 | COc1cc(C)nc(Oc2ccc(OCc3ccccc3)nn2)n1 | 9.37%

Row | Structure (SMILES) | hERG current change (%, negative = inhibition) at 1uM
28 | Cc1nc(SCc2cccc(F)c2)c2oc3ccccc3c2n1 | 13.9%
29 | Cn1c(SCC(=O)NC2CC2)nnc1-c1ccc(Cl)cc1 | 10.2%
30 | CCCCc1nc2sc3c(c2c(=O)n1NC(=O)c1ccco1)CC(C)(C)OC3 | 10.6%
31 | CNC(=O)c1ccc2nc(NC(C)=O)sc2c1 | -20.9%
32 | CCOC(=O)c1c(C)[nH]c(C)c1C(=O)COC(=O)[C@@H](NC(=O)c1ccccc1OCC)C(C)C | 13.6%
33 | CCNC(=O)CSc1nc2ccccc2c(=O)n1-c1cccc(OC)c1 | 17.1%
34 | O=S(=O)(c1ccccc1)N(CC1CO1)c1cccc2ccccc12 (stereo not drawn) | 3.18%
35 | O=C1CSC(=S)N1/N=C/c1cccc(C(F)(F)F)c1 | 4.83%
36 | Cc1ccc(C2=Nc3cccnc3C(c3ccccc3)=NN2)cc1 | 0.403%
37 | CCOc1ccc(/C=C2\CCCc3c2nc2ccccc2c3C(=O)O)cc1OC | 9.62%
38 | CSCCC(NC(=O)c1ccco1)C(=O)N1CC=C(c2ccccc2)CC1 (stereo not drawn) | -1.93%
39 | COc1ccc(NS(=O)(=O)c2cccc(N3CC(O)=C(c4ccccc4)C3=N)c2)cc1 | 21.3%
40 | CC(/C=C1\SC(=S)N(CCC(=O)Nc2cccc(C(=O)O)c2)C1=O)=C\c1ccccc1 | 7.22%
41 | COC(C[C@H](O)C[C@H](O)[C@H](C)OCc1ccccc1)OC | 17.1%
42 | CC(=O)n1cc([C@H]2C=C(C(=O)N3CCN(Cc4ccccc4)CC3)O[C@@H](OCc3ccc(CO)cc3)C2)c2ccccc21 | 2.68%
43 | COC(=O)NCc1cccc(CNC(=O)OC)c1 | 6.48%
44 | COCC(=O)OC/C(O)=C(\C#N)c1nc2ccccc2[nH]1 | 9.83%
45 | Cn1ncc(Cl)c1C(=O)N1CCN(c2ncccn2)CC1 | 12.8%
46 | C/C(CC(=O)Nc1ccc2c(c1)OCO2)=N\NC(=O)c1ccc(N)cc1 | 11%
47 | CCOc1ccc(C(=O)Oc2ccc(NC(C)=O)cc2)cc1 | 0.65%
48 | CC1CN(S(=O)(=O)c2ccc(C(=O)Nc3ccc(S(=O)(=O)N4CCOCC4)cc3)cc2)CC(C)O1 (stereo not drawn) | 15.7%
49 | Nc1cc(=O)[nH]c(SCc2ccccc2Cl)n1 | 14.1%
50 | C=CCn1c(O)c(C(C)=NCCC2=CCCCC2)c(=O)[nH]c1=O | 9.73%
51 | Cc1cc(=O)oc(C)c1C(=O)NNC(=O)C1(C)CC1Br (stereo not drawn) | 16.7%
52 | OC(CNCc1ccc2c(c1)OCO2)COc1ccc(F)cc1 (stereo not drawn) | 2.12%
53 | O=C(c1cccc(S(=O)(=O)Nc2ccccc2F)c1)N1CCN(c2ccccc2F)CC1 | -2.51%
54 | Cc1ccc(C(=O)NNC(=S)Nc2cccc(Cl)c2Cl)cc1[N+](=O)[O-] | 8.54%
